We go through 36 sequences from the supplement of paper PMC6531468.

The other results are listed elsewhere or left out. Read counts after selection give these values, which scatter widely. Scores sum up all selected molecules that hold the word; the word was not tested alone.

Common to all, as to experiment: 6-mer SELEX enrichment z-score vs GST control; IMP3 is the RNA-binding protein IGF2BP3; higher = more enriched by binding
The subject of one test is IMP3 KH1-4. The note with it: construct: KH1-4 (164-579); SELEX round: R4. As to the method:
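SELEX-seq with GST-tagged IMP3 KH1-4 (Pro164-Lys579) and an N40 RNA pool, round 4. 6-mer z-score of sequence-tag enrichment normalised to the corresponding GST SELEX round; RNA k-mers written as DNA (T for U).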

The next test has as its system IMP3 RRM1-2. Particulars: construct: RRM1-2 (1-163); SELEX round: R2. As to the method:
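SELEX-seq with GST-tagged IMP3 RRM1-2 (Met1-Asn163) and an N40 RNA pool, round 2. 6-mer enrichment z-score normalised to GST SELEX. RNA written as DNA (T = U).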

Another test has as its target IMP3 full-length (UniProt O00425). Particulars: construct: FL IMP3 (1-579); SELEX round: R4. The method, then: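 SELEX-seq with GST-tagged full-length IMP3 and an N40 RNA pool, round 4. Each 6-mer is scored as an enrichment z-score of sequence tags containing it, normalised to the matching GST SELEX round. RNA written as DNA (T = U).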
In the next test the test system is IMP3 KH3-4. The note with it: construct: KH3-4 (377-579); SELEX round: R4. As to the method: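 SELEX-seq with GST-tagged IMP3 KH3-4 (Pro377-Lys579) and an N40 RNA pool, round 4. 6-mer z-score of sequence-tag enrichment normalised to the corresponding GST SELEX round; RNA k-mers written as DNA (T for U).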
The test system of the next test is IMP3 KH1-2. Particulars: construct: KH1-2 (164-376); SELEX round: R4. The method, then: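 SELEX-seq with GST-tagged IMP3 KH1-2 (Pro164-Phe376) and an N40 RNA pool, round 4 (stringent 300/600 mM KCl washes). 6-mer z-score of sequence-tag enrichment normalised to the corresponding GST SELEX round; RNA k-mers written as DNA (T for U).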
Chain of IMP3 KH1-2 (chain, as listed by the source): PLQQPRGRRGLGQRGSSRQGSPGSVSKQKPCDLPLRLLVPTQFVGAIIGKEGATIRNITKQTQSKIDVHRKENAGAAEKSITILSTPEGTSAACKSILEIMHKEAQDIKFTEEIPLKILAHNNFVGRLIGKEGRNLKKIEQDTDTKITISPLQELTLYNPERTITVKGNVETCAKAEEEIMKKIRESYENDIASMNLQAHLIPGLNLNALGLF

Chain of IMP3 KH1-4 (chain, as listed by the source): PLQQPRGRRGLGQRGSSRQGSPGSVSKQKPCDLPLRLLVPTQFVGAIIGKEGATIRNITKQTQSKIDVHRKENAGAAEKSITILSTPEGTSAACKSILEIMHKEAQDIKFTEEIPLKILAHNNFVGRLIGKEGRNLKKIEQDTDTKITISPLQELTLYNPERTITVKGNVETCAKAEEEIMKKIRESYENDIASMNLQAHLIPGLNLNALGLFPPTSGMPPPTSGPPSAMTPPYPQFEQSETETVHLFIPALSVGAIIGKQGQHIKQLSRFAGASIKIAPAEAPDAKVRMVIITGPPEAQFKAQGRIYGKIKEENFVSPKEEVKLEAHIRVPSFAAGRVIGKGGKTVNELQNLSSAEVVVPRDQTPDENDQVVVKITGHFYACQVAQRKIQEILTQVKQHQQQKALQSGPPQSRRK
Chain of UniProt O00425 (O00425 whole entry): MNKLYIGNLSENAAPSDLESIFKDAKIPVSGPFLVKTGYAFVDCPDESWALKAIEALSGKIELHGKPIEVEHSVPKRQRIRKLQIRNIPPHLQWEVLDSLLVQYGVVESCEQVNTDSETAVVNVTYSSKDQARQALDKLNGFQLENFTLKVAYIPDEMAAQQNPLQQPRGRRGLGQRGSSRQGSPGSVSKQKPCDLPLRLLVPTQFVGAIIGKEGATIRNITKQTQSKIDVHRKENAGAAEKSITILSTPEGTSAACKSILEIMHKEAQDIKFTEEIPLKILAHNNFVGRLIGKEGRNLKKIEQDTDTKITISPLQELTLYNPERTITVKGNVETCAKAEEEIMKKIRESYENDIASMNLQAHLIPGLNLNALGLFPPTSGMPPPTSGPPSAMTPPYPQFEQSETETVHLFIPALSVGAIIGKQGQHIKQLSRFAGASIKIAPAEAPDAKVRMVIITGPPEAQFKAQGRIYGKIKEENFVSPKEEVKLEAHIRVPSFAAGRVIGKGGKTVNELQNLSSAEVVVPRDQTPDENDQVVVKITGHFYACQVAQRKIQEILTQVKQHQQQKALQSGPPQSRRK
Chain of IMP3 KH3-4 (chain, as listed by the source): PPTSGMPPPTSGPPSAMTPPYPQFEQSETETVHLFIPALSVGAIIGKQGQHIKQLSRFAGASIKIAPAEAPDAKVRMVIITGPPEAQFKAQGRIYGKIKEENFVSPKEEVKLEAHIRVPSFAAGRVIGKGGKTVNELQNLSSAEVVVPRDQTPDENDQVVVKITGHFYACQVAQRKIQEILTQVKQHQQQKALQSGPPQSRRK
Chain of IMP3 RRM1-2 (chain, as listed by the source): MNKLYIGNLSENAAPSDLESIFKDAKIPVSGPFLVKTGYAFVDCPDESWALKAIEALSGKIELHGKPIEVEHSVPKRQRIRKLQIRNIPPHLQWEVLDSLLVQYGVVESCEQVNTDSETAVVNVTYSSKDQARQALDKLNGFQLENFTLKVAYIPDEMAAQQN

CACCAC: the “6-mer SELEX enrichment z-score” value is 0.668 in the test on IMP3 KH1-4, 1.82 with IMP3 RRM1-2, 0.859 with IMP3 full-length and -0.732 in the test with IMP3 KH3-4.
For TCACAG, the “6-mer SELEX enrichment z-score” value in the test with IMP3 KH1-4 stood at 0.42; in the test on IMP3 RRM1-2, 1.56; in the test with IMP3 full-length, 1.58; in the test on IMP3 KH3-4, 0.173.
In the same order, the values of GAATGC are 0.011, -0.775, -0.542 and 0.007.
In the same order, the values of TTAGAA are 0.589, -0.473, -0.312 and 1.22.
Turning to AGGACA, the “6-mer SELEX enrichment z-score” value in the test on IMP3 KH1-4 was 1.53; with IMP3 RRM1-2, -0.144; with IMP3 full-length, 0.634; in the test with IMP3 KH3-4, 1.09.
Regarding CATTAA, the “6-mer SELEX enrichment z-score” value with IMP3 KH1-4 was 1.48; in the test on IMP3 RRM1-2, 0.913; with IMP3 full-length it was 0.912; with IMP3 KH3-4 it was 1.81.
Consider AGCTAC, for which the “6-mer SELEX enrichment z-score” value is -0.474 with IMP3 KH1-4, 0.206 with IMP3 RRM1-2, -0.113 in the test with IMP3 full-length and -0.535 with IMP3 KH3-4.
As to TTTTCC, the “6-mer SELEX enrichment z-score” value was 0.997 in the test on IMP3 KH1-4, 0.099 in the test on IMP3 RRM1-2, 0.141 in the test with IMP3 full-length and 0.798 with IMP3 KH3-4.
Turning to ATTACT, the “6-mer SELEX enrichment z-score” value with IMP3 KH1-4 is 1.02; with IMP3 RRM1-2, 0.281; with IMP3 full-length, 0.125; with IMP3 KH3-4, 1.2.
For TAGGGT the same measures were 0.16, 0.392, 0.265 and 0.468.
For AATTAT the same measures were 1.6, -0.246, 0.183 and 2.41.
With TTATTG, the “6-mer SELEX enrichment z-score” value in the test with IMP3 KH1-4 is 0.746; in the test with IMP3 RRM1-2 it was 0.267; in the test with IMP3 full-length, 0.138; in the test with IMP3 KH3-4, 0.944.
Regarding TATGAT, the “6-mer SELEX enrichment z-score” value with IMP3 KH1-4 was 1.33; with IMP3 RRM1-2 it was -0.108; with IMP3 full-length, -0.021; in the test with IMP3 KH3-4 it was 1.78.
For TCCACT, the “6-mer SELEX enrichment z-score” value in the test with IMP3 KH1-4 was 0.446; in the test on IMP3 RRM1-2, 0.348; in the test with IMP3 full-length, -0.033; in the test on IMP3 KH3-4, -0.036.
In the same order, the values of TTTCCT are 0.964, 0.183, 0.077 and 0.669.
Regarding TGCCAA, the “6-mer SELEX enrichment z-score” value in the test on IMP3 KH1-4 was -0.811; with IMP3 RRM1-2, -0.55; with IMP3 full-length, -0.847; with IMP3 KH3-4 it was -1.04.
On to TTGACT, for which the “6-mer SELEX enrichment z-score” value with IMP3 KH1-4 is -0.152; with IMP3 RRM1-2, -0.162; in the test with IMP3 full-length, -0.52; in the test on IMP3 KH3-4 it was -0.077.
Regarding ATGCCA, the “6-mer SELEX enrichment z-score” value is 0.015 in the test with IMP3 KH1-4, -0.371 with IMP3 RRM1-2, -0.191 with IMP3 full-length and -0.28 in the test on IMP3 KH3-4.
For TGAAGG, the “6-mer SELEX enrichment z-score” value in the test with IMP3 KH1-4 is 0.462; with IMP3 RRM1-2, -0.384; in the test with IMP3 full-length it was -0.02; in the test with IMP3 KH3-4, 0.712.
For CTTATA the same measures were 1.1, 0.062, 0.184 and 1.36.
In the same order, the values of TGTGGA are 0.281, -0.141, -0.249 and 0.263.
In the case of AGCTGA, the “6-mer SELEX enrichment z-score” value in the test with IMP3 KH1-4 is -0.988; in the test with IMP3 RRM1-2, -0.406; in the test with IMP3 full-length, -0.619; with IMP3 KH3-4, -0.818.
Turning to GTTGTA, the “6-mer SELEX enrichment z-score” value with IMP3 KH1-4 is -0.103; in the test with IMP3 RRM1-2 it was 0.227; in the test with IMP3 full-length, -0.219; in the test with IMP3 KH3-4, 0.047.
CCGCAC: the “6-mer SELEX enrichment z-score” value in the test on IMP3 KH1-4 is 0.515; in the test with IMP3 RRM1-2 it was 0.34; in the test with IMP3 full-length it was 0.873; in the test on IMP3 KH3-4, -0.471.
For GTGCAT, the “6-mer SELEX enrichment z-score” value came out at 0.571 with IMP3 KH1-4, 0.49 in the test on IMP3 RRM1-2, 0.781 with IMP3 full-length and 0.387 in the test on IMP3 KH3-4.
For the sequence GTGCCC, the “6-mer SELEX enrichment z-score” value in the test on IMP3 KH1-4 is -1.7; in the test with IMP3 RRM1-2, -0.197; with IMP3 full-length, -0.857; in the test with IMP3 KH3-4 it was -1.79.
As to ACTGGC, the “6-mer SELEX enrichment z-score” value turned out to be 0.493 in the test on IMP3 KH1-4, 0.274 with IMP3 RRM1-2, 0.603 with IMP3 full-length and 0.225 with IMP3 KH3-4.
Consider CGAATG, for which the “6-mer SELEX enrichment z-score” value was -0.84 in the test on IMP3 KH1-4, -1.04 in the test on IMP3 RRM1-2, -1.03 with IMP3 full-length and -0.702 in the test with IMP3 KH3-4.
For CCGATC the same measures were -1.27, -0.186, -0.444 and -1.44.
With TCATCC, the “6-mer SELEX enrichment z-score” value was 0.45 in the test with IMP3 KH1-4, 0.866 in the test with IMP3 RRM1-2, 0.656 with IMP3 full-length and -0.263 in the test on IMP3 KH3-4.
Turning to ACTATG, the “6-mer SELEX enrichment z-score” value in the test with IMP3 KH1-4 is 0.881; with IMP3 RRM1-2, -0.105; with IMP3 full-length, -0.123; in the test on IMP3 KH3-4 it was 0.951.
For the sequence ATACAG, the “6-mer SELEX enrichment z-score” value in the test on IMP3 KH1-4 came to 1.71; in the test on IMP3 RRM1-2, 0.736; with IMP3 KH1-2 it was 1.79.
In the case of ATTACG, the “6-mer SELEX enrichment z-score” value in the test with IMP3 KH1-4 worked out at 0.795; in the test with IMP3 RRM1-2, 0.033; with IMP3 full-length it was 0.075; with IMP3 KH3-4 it was 1.01.
For the sequence TAGTTG, the entries for the “6-mer SELEX enrichment z-score” value with IMP3 KH1-4, in the test on IMP3 RRM1-2 and in the test with IMP3 KH1-2 were -0.188, 0.386 and -0.184, respectively.
Consider TACTGT, for which the “6-mer SELEX enrichment z-score” value in the test with IMP3 KH1-4 was 0.552; in the test with IMP3 RRM1-2 it was 0.009; with IMP3 full-length it was -0.022; in the test on IMP3 KH3-4, 0.414.
In the same order, the values of TATGTG are 0.694, 0.134, -0.166 and 0.813.
